Assay results: publication PMC4170737 (Bioorganic & medicinal chemistry letters, 2014)

Target: T1, ectonucleotide pyrophosphatase/phosphodiesterase-1 (NPP-1) (Homo sapiens, UniProt P22413)
T1 sequence (P22413 1-925): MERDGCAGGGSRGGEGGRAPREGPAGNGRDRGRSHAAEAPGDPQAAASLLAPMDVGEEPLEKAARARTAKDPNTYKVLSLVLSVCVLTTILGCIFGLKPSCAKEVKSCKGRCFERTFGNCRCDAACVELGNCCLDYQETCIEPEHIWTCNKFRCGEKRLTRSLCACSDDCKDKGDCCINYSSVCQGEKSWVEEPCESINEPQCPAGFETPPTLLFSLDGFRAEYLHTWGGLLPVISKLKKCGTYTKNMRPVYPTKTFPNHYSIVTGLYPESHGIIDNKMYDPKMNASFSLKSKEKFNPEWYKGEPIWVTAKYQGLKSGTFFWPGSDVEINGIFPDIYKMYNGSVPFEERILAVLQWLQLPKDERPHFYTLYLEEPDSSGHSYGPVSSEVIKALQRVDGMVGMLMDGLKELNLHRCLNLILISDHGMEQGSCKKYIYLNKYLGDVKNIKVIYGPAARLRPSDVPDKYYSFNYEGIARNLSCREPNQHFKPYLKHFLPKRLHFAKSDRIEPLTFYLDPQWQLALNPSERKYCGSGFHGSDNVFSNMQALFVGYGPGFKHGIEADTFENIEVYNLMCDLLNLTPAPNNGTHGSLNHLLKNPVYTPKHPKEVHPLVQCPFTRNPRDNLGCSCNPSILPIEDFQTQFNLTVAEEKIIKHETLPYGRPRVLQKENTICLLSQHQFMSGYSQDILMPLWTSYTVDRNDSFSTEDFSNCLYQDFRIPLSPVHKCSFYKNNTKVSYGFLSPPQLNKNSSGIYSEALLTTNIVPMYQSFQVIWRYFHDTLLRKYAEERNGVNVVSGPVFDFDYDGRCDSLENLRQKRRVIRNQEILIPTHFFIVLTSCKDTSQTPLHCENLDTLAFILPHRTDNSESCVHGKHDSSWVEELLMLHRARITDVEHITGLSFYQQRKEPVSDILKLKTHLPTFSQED

CN(C)C(=O)c1cccc(-n2sc3ccccc3c2=O)c1 [Compound 2q]
Inhibitory activity against NPP-1 (in words): devoid of any significant inhibitory activity
